In PubChem BioAssay AID686979 (National Center for Advancing Translational Sciences (NCATS), 2013):
Several values for one entry are separate records, joined by “and”; a condition that tells them apart may be missing. Equal values may be shown once. Out of some 420,000 compounds screened, about 50,000 (12%) were called active. Inconclusive means that the source gave no clear call. Such entries were picked first, then a sample of the others. The call rests on the fitted dose curve; in most records, active means well fitted inhibition curve with a large enough effect; inconclusive means small, poorly fitted or top-dose-only effect; inactive means flat fitted curve, though single readings scatter. No potency is given beside an inconclusive call; the fits are too rough.

Assay: qHTS for Inhibitors of human tyrosyl-DNA phosphodiesterase 1 (TDP1): qHTS in cells in presence of CPT; further: nearly all actives have a fitted effect of over 55% in size
Conditions: chicken DT40 Tdp1-/-;hTDP1 cells + 20 nM CPT, ATP luminescence, 48 h; activity change, negative = growth inhibition: at 46.2 µM (top of the series)
Method in brief: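 Chicken DT40 Tdp1-/- cells complemented with human TDP1, 400 cells/well, exposed to compounds plus 20 nM camptothecin for at least 48 h at 37 C; viability read as ATP content by CellTiter-Glo luminescence.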
On the % scale 0 is the no-effect control and ±100 the full control effect; potency means the concentration at half of the fitted maximal effect; tags describe the fitted curve by direction and shape.

Compound | Potency | activity change, negative = growth inhibition
COc1ccc(Cl)cc1C(=O)NNC(=O)c1ccc(F)c(S(=O)(=O)N2CCOCC2)c1 | inactive | –
COc1ccc(Nc2nc(-c3ccccc3)nc3ccccc23)cc1 | inconclusive [inhibitor, single point] | –
CCN(CC)c1ccc(/C=C(/C#N)c2nc3ccccc3[nH]2)c(OC(C)C)c1 | active: 18.4 µM | –
O=C1/C(=C/c2cccc(F)c2)CSc2sccc21 | inconclusive [inhibitor, partial curve] | –
CCCCN(C=O)c1c(CC)nc2ccc(C(=O)NCCN(C)C)cn12 | inactive | –
Cc1sc2ncn(CC(=O)N(CC(=O)NC3CCCC3)Cc3cccs3)c(=O)c2c1C | inconclusive [inhibitor, single point] | –
N=C(N)SCCN | active: 7.5 µM and active: 3.66 µM and active: 23.1 µM | –
CCN(CC)CCNC(=O)c1nn(-c2ccc(Cl)cc2)c2c1CCc1cc(OC)ccc1-2 | inconclusive [inhibitor, single point] | –
CCCN(C(=O)COC(=O)CSc1ccc([N+](=O)[O-])cc1)C1CCS(=O)(=O)C1 (stereo not drawn) | inconclusive [inhibitor, single point] | –
COc1ccc(NC(=O)CCS(=O)(=O)c2nc(-c3ccc4c(c3)OCO4)cc(C(F)(F)F)n2)c(OC)c1 | inconclusive [inhibitor, single point] | –
CCn1c(=O)c2c(nc(SCC(=O)Nc3ccccc3)n2C)n(C)c1=O | inactive | –
COc1ccc(CN2C(=O)CN(C3CCCCCC3)C(=O)C2c2ccc(OC)c(OC)c2)cc1 (stereo not drawn) | inconclusive [inhibitor, partial curve] | –
NS(=O)(=O)c1ccc(NC(=O)COC(=O)c2cc3ccccc3cc2O)cc1 | inactive | –
Cc1nc2ccccc2c(=O)n1/N=C/c1c(O)ccc2ccccc12 | inconclusive [inhibitor, single point] | –
CC(C)N(Cc1ccccc1)C(=O)CN1C(=O)COc2ccc(S(=O)(=O)N3CCCCCC3)cc21 | active: 14.6 µM | –
CCN(C(=O)c1cnc(N2CCOCC2)c2ccccc12)c1cc(C)ccc1C | active: 23.1 µM | –
CC(CNC(=O)CCCn1c(=O)c2cccn2c2ccccc21)c1ccccc1 (stereo not drawn) | inconclusive [inhibitor, single point] | –
CCOC(=O)c1ccc(NC(=O)CSc2nc(SC)ns2)cc1 | inconclusive [inhibitor, single point] | –
CC(OC(=O)Cc1n[nH]c(=O)c2ccccc12)C(=O)Nc1ccc(F)cc1 (stereo not drawn) | inconclusive [inhibitor, single point] | –
O=C(Nc1ccccc1C(=O)Nc1ccccc1C(=O)O)c1ccccc1 | inconclusive [inhibitor, single point] | –
O=C(/C=C/c1ccccc1)Nc1cccnc1Oc1ccccc1F | inactive | –
COc1ccc(S(=O)(=O)Nc2cccc(-c3ccc4nncn4n3)c2)cc1F | active: 2.31 µM | –

Compound | Potency | activity change, negative = growth inhibition
Cc1ccc(C(=O)N2CCCC(CCC(=O)N3CCN(c4ccccn4)CC3)C2)cc1 (stereo not drawn) | inconclusive [inhibitor, partial curve] | –
N#Cc1c(SCc2c(Cl)cccc2Cl)nc(N)[nH]c1=S | inconclusive [inhibitor, partial curve, poor fit] | –
COc1ccc(CCN2CC(C(=O)NCCc3cnn(C)c3)CCC2=O)cc1 (stereo not drawn) | inconclusive [inhibitor, single point] | –
CCn1c(SCc2cccc(C)c2)nnc1-c1ccccc1 | inconclusive [inhibitor, single point] | –
CCSc1nc2sc3c(c2c(=O)n1-c1ccccc1)CCN(C)C3 | inconclusive [inhibitor, single point] | –
C/C(=N\NC(=O)c1cc(C)[nH]n1)c1ccc(-c2ccccc2)cc1 | inconclusive [inhibitor, partial curve] | –
COc1ccc(-c2cnc3c(NC(C)=O)cc(-c4ccsc4)cn23)cc1OC | active: 16.4 µM | –
CCOC(=O)[C@H]1[C@H]2COc3ccc(C)cc3[C@@H]2N2C(=O)c3ccc(Cl)cc3NC(=O)[C@@]12C | inconclusive [inhibitor, partial curve, poor fit] | –
COc1ccccc1NC(=O)COC(=O)C1CC1 | inactive | –
Nc1nc(NCc2ccc(Cl)cc2)c2[nH]cnc2n1 | inconclusive [inhibitor, single point] | –
Cc1onc(-c2ccccc2)c1C(=O)N1CCc2ccccc21 | – | inconclusive: -30.3% [inhibitor]
O=C(CSc1ncnc2[nH]ncc12)Nc1cccc(Oc2ccccc2)c1 | inconclusive [inhibitor, single point] | –
Cc1cc(NC(=O)CN(C)CC(=O)Nc2ccc(Cl)cc2)no1 | inconclusive [inhibitor, single point] | –
CC12CCC(=O)N1C(C(=O)N1CCN(c3cccc(Cl)c3)CC1)CS2 (stereo not drawn) | inactive | –
Cc1ccc([C@H]2C[C@H](n3cc(COC(=O)c4ccccc4)nn3)[C@@H](O)CN2CC2CCCCC2)cc1 | inconclusive [inhibitor, single point] | –
O=C(OCc1ccccc1)c1cccnc1 | inconclusive [inhibitor, single point] | –
O=C(c1cnn2c(C(F)(F)F)cc(-c3cccs3)nc12)N1CCOCC1 | inconclusive [inhibitor, single point] | –
Cc1ccc(C(=O)Nc2onc(C)c2C#N)cc1 | inactive | –
O=C(Nc1ccc2c(c1)OCO2)C1Cc2c(-c3ccc4c(c3)OCO4)ccnc2O1 (stereo not drawn) | active: 6.51 µM | –
CC1CCN(c2ccccc2NC(=O)c2cc([N+](=O)[O-])ccc2N2CCOCC2)CC1 | inconclusive [inhibitor, single point] | –
CCOc1ccccc1NC(=O)c1ccc2c(Cl)c3c(nc2c1)CCCC3 | inconclusive [inhibitor, full curve] | –
